# The other results are listed elsewhere or left out.
# Test system: PfSIP2 AP2 domain 1 (GST-tagged)
# Test: gcPBM binding intensity (ln(normalized median fluorescence intensity)); higher = stronger DNA binding
# Outline: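 Plasmodium falciparum DNA-binding domains carrying a GST tag were expressed in E. coli and applied for 1 h, at about 25 μg on average, to an Agilent 4 × 180k array. The array held primer-extended double-stranded 36-bp intergenic genomic probes together with negative controls, and binding took place in 1× PBS with 1% milk, 0.2 mg/ml BSA, 0.5% salmon testes DNA and 0.03% Triton X-100. An Alexa488 anti-GST antibody detected bound protein, and the array was scanned at 488 nm. Binding intensity is taken as the highest Masliner-normalised natural-log median intensity across replicate spots of either probe orientation.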
row,Sequence,gcPBM binding intensity (ln)
1,GAGTATATTTATATTGCACACAATTTTTTTATTTTT [CACACA_site2644],6.85
2,ACATGAATTTATATGTGTACTAACTATATTCTTAAA [XGTACX_site5966],6.92
3,TATCTGTATTTATTCACACATATAAAATATAATTAA [CACACA_site5560],7.19
4,ATGAATAAATAGGTCACACACAAATATTTATAAATA [CACACA_site7186],7.03
5,TCTGGCATATAATATTGTACACATATATATATATAT [XGTACX_site8182],8.73
6,TATATACAATATAGGTGTACATTTTTTTATCTATTT [XGTACX_site8431],7.43
7,AACGGGGGTAGTTTTATGCACACGTTTATTAATGCT [CACACA_site3173],7.88
8,GATATGAATATAGGTTGTACTATATATAAAGTATGT [XGTACX_site1877],7.21
9,TATATGTTAATTTTTTTTTTTTTTTTTTTTTTTATA [CACACA_negctrl_site62],6.61
10,AAAGTACAAGTATAATCACACGTGTCTATTATATAC [CACACA_site4507],6.77
11,AATATCTTAGTGGATACACACATATAAATGTGTATT [CACACA_site6367],6.75
12,CTTTCAATTTTTTTCTGTACCAATAAAAAATATAAA [XGTACX_site2120],7.18
13,ATAATGTTTTATAATACACACATTATATATATAAAT [CACACA_site6101],6.9
14,ATATTTATGTAAAAAAGTACATACAATTATATATGT [XGTACX_site3750],6.97
15,GATTACAAAAAAAATACACACAAAAAAAAAAAGGAA [CACACA_site2096],6.99
16,ACACATACATACATATGTACATATATACATATATAC [XGTACX_site5559],7.46
17,AGTAAACGATGATGTTGTACAAAAAGGATAATTTAA [XGTACX_site6698],7
18,TTTTTATTTTTTATGTAATTTAAATAATTATTCAAA [CACACA_negctrl_site1549],6.77
19,CAATACTATTATTATAGTACGTATAAAATTATATAT [XGTACX_site4950],7.1

row,Sequence,gcPBM binding intensity (ln)
1,TACAAAAAAGAAGATATTCAAACAAAAACAAAAAAA [CACACA_negctrl_site1126],6.8
2,TATATATATATGCTACGTACATATATATTATATATA [XGTACX_site7894],8.92
3,TATCATAATAGACACAGTACATATATGTCTTAAATT [XGTACX_site8775],6.95
4,GTATTCTTCTCTCCGTGTACATATATATGTATATAT [XGTACX_site803],7.7
5,AAACCGTGGGAGCACACACACACACGCGCACATATA [CACACA_site6288],7.07
6,GTAACCCACCAAAATGCACACATTAAAAAAAAAAAA [CACACA_site1046],8.06
7,TGTTTCTAAAAAAAAGGTACACATATATATAATATA [XGTACX_site3217],7.1
8,ATAGTTTATACAAATAGTACGCACAAAAAAAAATAA [XGTACX_site6727],7.24
9,AAAAAATTTCAAATGACATAATGTAATTTCCCTTTT [GTGCAC_negctrl_site673],6.53
10,AATACCGGAAAGCAAACACACATTTGAAAACCATAA [CACACA_site7761],6.95
11,TATATATTATATATATGTACATATTTATTTTATTTT [XGTACX_site6989],7.28
12,TTTATCAAAATAAATGCACACAAATTGCACATATCT [CACACA_site8281],9.03
13,TATATATAAACAAAATGTACATATTTGAGATACCCT [XGTACX_site2195],6.99
14,ATGAACATTTATAAATGTACTCACATATATATATTT [XGTACX_site6692],7.02
15,TTTATATTTATCCAAAGTACTTTTTAAAAACATACC [XGTACX_site4518],7.36
16,AGATATATATTTTATTGTACACATTAAAGTATAAAA [XGTACX_site7194],6.99
17,AACATTTTTAGATTATATTATTAAATAAGTAACTGC [XGTACX_negctrl_site326],6.81
18,AACACTTTAATTTATGCACACATATGGAACAACAGC [CACACA_site8241],7.92
19,AAGTTTTTTATTTTTTGTACATAAAAAATAATAATT [XGTACX_site1755],7.02

row,Sequence,gcPBM binding intensity (ln)
1,TATGTATTTATATATACACACTTCTGTGATACGAAA [CACACA_site5128],6.87
2,TTTTTGTTTTTTTTTTGTACATATATATAAAAAATA [XGTACX_site1214],7.14
3,TTTTTTTTAATATTTTACATTGTCTGTTAACAAATA [CACACA_negctrl_site599],6.88
4,GGGAGGATAGTTCACAGTACCCAGTAACTCTACGGA [XGTACX_site2558],7.12
5,ATTTATTGACTATTTACACACATATTTATTAGAATA [CACACA_site6863],7.11
6,ATGATACATAAAGAATATAAAACATGAAATATAATA [CACACA_negctrl_site1461],6.8
7,AACTGAGAAACCGAAGTGCAATATGTATATATACAT,7.56
8,ATATATAATATATATGCATGTGACATTAATAATATA [TGCATGCA_site880],7.15
9,TAATTTAAAAATATAAATGTTTCACTTATATATTTT [TGCATGCA_negctrl_site399],6.62
10,ATATGAAAGGTGTACACACGCACACCCAAAAAAATA [CACACA_site2911],7.93
11,CCACACTTAAAATACACACACACCAAAAAAAAAAAA [CACACA_site2709],7.24
12,TACACCCATGGACACACACACACGCATAAAAAAAAA [CACACA_site4933],7.4
13,AAAAAAAAAAAAAAAACACACATTTGAAAGAAAGAA [CACACA_site3339],7.78
14,ATTTTTATTTTCTTTACACACCACATAATTTTTTTT [CACACA_site6092],7.31
15,GCCACACTTTTCTGCACACATAAAAAATATATAAAT [CACACA_site578],8.53
16,CATAAGAGGAACTTTTGTACTTATATGTATATAGTA [XGTACX_site5836],6.83
17,CTTTTATGAAACAGTGCACACATAAAAATATATACA [CACACA_site8981],11.3
18,TATATCGTTATATAAACACACAATATGTTTTTTATA [CACACA_site7730],6.86

# Reference: the supplement of paper PMC11417369
